Experimental data: PMC5681660, “Reduced hepatitis B and D viral entry using clinically applied drugs as novel inhibitors of the bile acid transporter NTCP” (Scientific Reports, 2017)
Counter-ions that a name gives are not always drawn. Like-named read-outs stand apart in the source and are kept apart here. Starred links: 1 amine or outer side, 2 acyl side, 3 side chain; linkers in the order of their positions; H or OH if unused. Positions of bridges follow the written chain, without caps; N, C: chain ends. Non-standard residues stand in square brackets, D forms with d. Residues, ends and D or L forms follow the SMILES beside them. *: point of attachment. X1 = NC1=N[C@@H]([C@H](N[*:1])C(=O)[*:2])C[C@H](O)N1; ΔAla(Z-3-ureido) = NC(=O)N/C=C(\N)C(=O)O; β3hOrn = NCCC[C@H](N)CC(=O)*; Dap = NC[C@H](N)C(=O)O

Legend:
[1] = molecular target: T1, human NTCP (Homo sapiens, UniProt Q14973); test: Screening taurocholate uptake assay (96-well, [14C]taurocholate, 10 µM drug); details: for remaining activity at 10 µM: 10 min, read-out: %NTCP activity
T1 sequence (Q14973 1-349): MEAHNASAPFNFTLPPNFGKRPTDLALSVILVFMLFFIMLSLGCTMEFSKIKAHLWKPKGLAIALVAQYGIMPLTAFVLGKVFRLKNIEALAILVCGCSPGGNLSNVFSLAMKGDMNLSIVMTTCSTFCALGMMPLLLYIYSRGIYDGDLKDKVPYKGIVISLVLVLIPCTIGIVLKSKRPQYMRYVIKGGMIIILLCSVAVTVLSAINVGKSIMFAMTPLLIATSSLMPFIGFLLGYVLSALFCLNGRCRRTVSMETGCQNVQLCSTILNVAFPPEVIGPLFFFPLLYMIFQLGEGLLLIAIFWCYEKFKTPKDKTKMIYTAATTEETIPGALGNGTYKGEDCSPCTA

[2] = molecular target: T1, human NTCP; test: Screening fluorescent competitive Myrcludex B-FITC binding assay (96-well, 10 µM drug)
[3] = Prestwick library screen, [14C]taurocholate uptake, 10 µM drug
[4] = Prestwick library screen, Myrcludex B-FITC binding, 10 µM drug
[5] = Prestwick library screen, 10 µM drug, Myrcludex B-FITC binding

Structure (SMILES) | remaining activity at 10 µM [1] [%] | remaining activity at 10 µM ([2]; 0.5 h, read-out: %NTCP binding) [%] | also measured
Cn1c(NCCN(CCO)CCCc2ccc([N+](=O)[O-])cc2)cc(=O)n(C)c1=O [Nifekalant] | 92 | 91.3 | –
CCCNC(C)(C)COC(=O)c1ccccc1 [Meprylcaine hydrochloride] | 68.6 | 104 | –
CCN(CCCCOC(=O)c1ccc(OC)c(OC)c1)C(C)Cc1ccc(OC)cc1 (stereo not drawn) [Mebeverine hydrochloride] | 120 | 57.9 | –
O=C(O)C(O)C(O)C(=O)O.O=C(c1ccc(F)cc1)C1CCN(CCn2c(=O)[nH]c3ccccc3c2=O)CC1 [Ketanserin tartrate hydrate] | – | – | %NTCP activity [1, 3]: 111.152%; %NTCP binding [2, 4]: 71.289%
Fc1ccc(C(c2ccc(F)cc2)N2CCN(C/C=C/c3ccccc3)CC2)cc1 [Flunarizine dihydrochloride] | 86.7 | 74.8 | –
CC[N+](C)(C)Cc1ccccc1Br [Bretylium tosylate] | 53.7 | 94 | –
Nc1ccc(S(=O)(=O)Nc2nccs2)cc1 [Sulfathiazole] | 65.1 | 111 | –
Cn1c(=O)c2c(ncn2CCO)n(C)c1=O [Etofylline] | 118 | 77.9 | –
CN1[C@@H]2CC[C@H]1C[C@@H](OC(c1ccccc1)c1ccccc1)C2 [Benztropine mesylate] | 79.9 | 87.8 | –
C[N+](C)(C)CCOC(N)=O [Carbachol] | 116 | 71.1 | –
C[C@]12CCC(=O)C(O)=C1CC[C@@H]1[C@@H]2CC[C@]2(C)C(=O)CC[C@@H]12 [Formestane] | 103 | 83.1 | –
O=C(O)c1cccnc1Nc1cccc(C(F)(F)F)c1 [Niflumic acid] | 17 | 91.3 | –
O=C(O)Cc1ccccc1Nc1c(Cl)cccc1Cl [Diclofenac sodium] | 106 | 91.9 | –
NCC1(CC(=O)O)CCCCC1 [Gabapentin] | 64 | – | remaining activity at 10 µM ([2]; 0.5 h, read-out: %NTCP binding, screen, 10 µM drug, Myrcludex B-FITC binding): 83.9%
c1coc(CNc2ncnc3nc[nH]c23)c1 [6-Furfurylaminopurine] | – | – | %NTCP activity [1]: 100.035%; %NTCP binding [2, 4]: 78.2733%
CC(C)(S)C(N)C(=O)O (racemic) [D,L-Penicillamine] | – | – | %NTCP activity ([1]; Prestwick library screen, 10 µM drug, [14C]taurocholate uptake): 111.132%; %NTCP binding [2, 5]: 87.7937%
COc1ccc(C2CNC(=O)C2)cc1OC1CCCC1 (stereo not drawn) [Rolipram] | 68.4 | 103 | –
CCCC(C)C1(CC)C(=O)NC(=O)NC1=O (stereo not drawn) [Pentobarbital] | 116 | 87.5 | –
CCC(=O)O[C@]1(C(=O)SCF)[C@H](C)C[C@H]2[C@@H]3C[C@H](F)C4=CC(=O)C=C[C@]4(C)[C@@]3(F)[C@@H](O)C[C@@]21C [Fluticasone propionate] | 66.1 | 113 | –
CN(C)/N=N/c1[nH]cnc1C(N)=O [Dacarbazine] | 112 | 88 | –
CN1C[C@H](C(=O)N[C@]2(C)O[C@@]3(O)[C@@H]4CCCN4C(=O)[C@H](Cc4ccccc4)N3C2=O)C[C@@H]2c3cccc4[nH]cc(c34)C[C@H]21.CN1C[C@H](C(=O)N[C@]2(C)O[C@@]3(O)[C@@H]4CCCN4C(=O)[C@H](Cc4ccccc4)N3C2=O)C[C@@H]2c3cccc4[nH]cc(c34)C[C@H]21.O=C(O)C(O)C(O)C(=O)O [Dihydroergotamine tartrate] | – | – | %NTCP activity ([1]; screen, 10 µM drug, [14C]taurocholate uptake): 90.1719%; %NTCP binding ([2]; screen, 10 µM drug, Myrcludex B-FITC binding): 72.4359%
CN1CCOC(c2ccccc2)c2ccccc2C1 (stereo not drawn) [Nefopam hydrochloride] | 138 | 53.7 | –
O=C(O)COC(=O)Cc1ccccc1Nc1c(Cl)cccc1Cl [Aceclofenac] | 74.6 | 69.8 | –
COc1cc2ncnc(Nc3ccc(F)c(Cl)c3)c2cc1OCCCN1CCOCC1 [Gefitinib] | 133 | 74.1 | –
COc1ccnc(C[S+]([O-])c2nc3ccc(OC(F)F)cc3[nH]2)c1OC (stereo not drawn) [Pantoprazole sodium] | 87.1 | 90 | –
C[C@@]12N[C@@H](Cc3ccccc31)c1ccccc12.O=C(O)/C=C\C(=O)O [(-)-MK 801 hydrogen maleate] | – | – | %NTCP activity [1]: 58.5177%; %NTCP binding [2, 4]: 84.7031%
O=C(NCC(O)CO)c1c(I)c(C(=O)NCC(O)CO)c(I)c(N(CCO)C(=O)CO)c1I (stereo not drawn) [Ioversol] | 122 | 74.7 | –

Structure (SMILES) | remaining activity at 10 µM [1] [%] | remaining activity at 10 µM ([2]; 0.5 h, read-out: %NTCP binding) [%] | also measured
Cn1c(=O)c2c(ncn2CC2OCCO2)n(C)c1=O [Doxofylline] | 133 | 80.7 | –
CC(=O)N[C@@H](CS)C(=O)O [Acetylcysteine] | 70.1 | 97.6 | –
CC(C)C[C@H](NC(=O)[C@@H](O)[C@H](N)Cc1ccccc1)C(=O)O [Ubenimex] | 88.1 | 64.2 | –
Cc1nccn1CC1CCc2c(c3ccccc3n2C)C1=O.Cl (stereo not drawn) [Ondansetron Hydrochloride] | – | – | %NTCP activity [1, 3]: 128.53%; %NTCP binding [2, 4]: 71.5151%
C#C[C@]1(O)CC[C@H]2[C@@H]3[C@H](C)CC4=C(CCC(=O)C4)[C@H]3CC[C@@]21C [Tibolone] | 96.1 | – | remaining activity at 10 µM ([2]; 0.5 h, read-out: %NTCP binding, Prestwick library screen, 10 µM drug, Myrcludex B-FITC binding): 59.5%
CC(=O)Oc1ccccc1C(=O)O [Acetylsalicylic acid] | 142 | 96.4 | –
CC[C@@H](C(N)=O)N1CCCC1=O [Levetiracetam] | 118 | – | remaining activity at 10 µM ([2]; 0.5 h, read-out: %NTCP binding, Prestwick library screen, Myrcludex B-FITC binding, 10 µM drug): 76.7%
CC(CCc1ccccc1)NCC(O)c1ccc(O)c(C(N)=O)c1 (stereo not drawn) [Labetalol hydrochloride] | 54.1 | 82.2 | –
CN1Cc2c(N)cccc2C(c2ccccc2)C1 (stereo not drawn) [Nomifensine maleate] | 67.5 | 80.4 | –
CCOc1ccc(Cc2nccc3cc(OCC)c(OCC)cc23)cc1OCC [Ethaverine hydrochloride] | 103 | 118 | –
CN1CCN(c2c(F)cc3c(=O)c(C(=O)O)cn(CCF)c3c2F)CC1 [Fleroxacin] | 77.7 | 93.6 | –
COc1cc2c(cc1OC)C(C)NCC2.Cl (stereo not drawn) | – | – | %NTCP activity [1]: 104.808%; %NTCP binding [2, 5]: 82.2306%
CCCCN(CCCC)CCC(O)c1cc2c(Cl)cc(Cl)cc2c2cc(C(F)(F)F)ccc12 (stereo not drawn) [Halofantrine hydrochloride] | 119 | 79.5 | –
CN1C(=O)OC(C)(C)C1=O [Trimethadione] | 69.7 | 76.9 | –
COc1cc([C@@H]2c3cc4c(cc3[C@H](O)[C@H]3COC(=O)[C@H]23)OCO4)cc(OC)c1OC [Podophyllotoxin] | 102 | 134 | –
Cn1c([N+](=O)[O-])cnc1COC(N)=O [Ronidazole] | 86 | 81.7 | –
COc1nc(C)nc(Cl)c1N=C1NCCN1 [Moxonidine] | 69.7 | 93.9 | –
CN1CCCN(C(c2ccccc2)c2ccc(Cl)cc2)CC1.Cl.Cl (stereo not drawn) [Homochlorcyclizine dihydrochloride] | – | – | %NTCP activity [1]: 73.8774%; %NTCP binding [2, 5]: 84.2321%
CC(=O)S[C@@H]1CC2=CC(=O)CC[C@]2(C)[C@H]2CC[C@@]3(C)[C@@H](CC[C@@]34CCC(=O)O4)[C@H]12 [Spironolactone] | 87.6 | 88.4 | –
NS(=O)(=O)c1cc2c(cc1Cl)N=CNS2(=O)=O [Chlorothiazide] | 50.9 | 94.1 | –
Cc1cc2c(cc1S(N)(=O)=O)S(=O)(=O)CCC2 [Meticrane] | 144 | 111 | –
NCCC[C@H](N)CC(=O)N[C@H]1CNC(=O)[C@H]([C@H]2C[C@H](O)NC(N)=N2)NC(=O)/C(=C/NC(N)=O)NC(=O)[C@H](CO)NC(=O)[C@H](CO)NC1=O.O=S(=O)(O)O [Viomycin sulfate] (β3hOrn-[Dap]SS[ΔAla(Z-3-ureido)][X1]; lactam 1-C) | – | – | %NTCP activity [1]: 118.632%; %NTCP binding [2, 5]: 91.0621%
COc1ccc(CN(CCN(C)C)c2ccccn2)cc1 [Pyrilamine maleate] | 30.1 | 55.4 | –
O=P(O)(O)C(Cl)(Cl)P(=O)(O)O [Clodronate] | 80.8 | 79.1 | –
CCCc1cc(C(N)=S)ccn1 [Prothionamide] | 66.1 | 126 | –
CC[N+](C)(CC)CCOC(=O)C1c2ccccc2Oc2ccccc21 [Methantheline bromide] | 83.1 | 110 | –
Cc1ccc(C(=O)c2cc(O)c(O)c([N+](=O)[O-])c2)cc1 [Tolcapone] | 70.6 | 88.5 | –
